{"source": "PubChem BioAssay AID686979", "about": "(National Center for Advancing Translational Sciences (NCATS), 2013)", "note": "Screen size: about 420,000 compounds; about 50,000 (12%) were called active. The shares of active, inactive and inconclusive entries below differ from those in the screen. Calls follow the shape of the dose curve; as a rule, active = well fitted inhibition curve with a large enough effect; inconclusive = small, poorly fitted or top-dose-only effect; inactive = flat fitted curve, though single readings scatter. Potencies of inconclusive entries are left out as doubtful fits. % is scaled to controls: 0 for no effect and ±100 for the full control effect; potency is read from the fitted curve at half-maximal effect; tags tell the direction and shape of the fitted curve.", "data": [{"assay": "qHTS for Inhibitors of human tyrosyl-DNA phosphodiesterase 1 (TDP1): qHTS in cells in presence of CPT; also: nearly all actives have a fitted effect of over 55% in size", "conditions": "chicken DT40 Tdp1-/-;hTDP1 cells + 20 nM CPT, ATP luminescence, 48 h; activity change, negative = growth inhibition: at 46.2 µM (top of the series)", "how_it_was_run": "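Cell growth measured by CellTiter-Glo luminescence after a minimum 48 h, 37 C compound exposure with 20 nM CPT in Tdp1-knockout DT40 cells stably expressing hTDP1, seeded 400/well; qHTS titration format.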", "values": [{"smiles": "c1ccc(CNc2nc3ccccc3c3nc(-c4ccccc4)nn23)cc1", "Potency": "inconclusive [inhibitor, single point]"}, {"smiles": "Cn1c(=O)c2nc(SCC(=O)Nc3cc(Cl)ccc3Cl)n(C)c2n(C)c1=O", "Potency": "inconclusive [inhibitor, single point]"}, {"smiles": "Cc1snc(S(=O)(=O)Cc2ccccc2Cl)c1C#N", "activity change, negative = growth inhibition": "inactive: 6.94%"}, {"smiles": "Cc1ccc(N(CC(=O)N2CCCCCC2)S(C)(=O)=O)cc1", "activity change, negative = growth inhibition": "inactive: 3.55%"}, {"smiles": "O=C(N/C(=C\\c1ccc(Br)cc1)C(=O)N1CCOCC1)c1ccco1", "activity change, negative = growth inhibition": "inactive: 2.56%"}, {"smiles": "CC(C)(C)c1ccc(C(=O)Nc2ccc(CN3CCS(=O)(=O)CC3)cc2)cc1", "Potency": "active: 16.4 µM"}, {"smiles": "COc1ccccc1NC(=S)NNC(=O)c1c(Cl)c(C)nn1C", "Potency": "inconclusive [inhibitor, single point]"}, {"smiles": "COc1cc([C@H](Cc2ccccc2)NC(C)=O)oc(=O)c1", "Potency": "inconclusive [inhibitor, single point]"}, {"smiles": "COc1ccc(NC(=O)COC(=O)c2ccc(S(=O)(=O)N3CCCC3)cc2)cc1OC", "activity change, negative = growth inhibition": "inactive: 4.19%"}, {"smiles": "COc1ccc(NC(=O)COC(=O)c2ccc(Cl)c(S(N)(=O)=O)c2)c([N+](=O)[O-])c1", "activity change, negative = growth inhibition": "inactive: -24.1%"}, {"smiles": "CC1(C)Cc2c(C#N)c(SCC(=O)c3ccccc3)nc(N3CCOCC3)c2CS1", "Potency": "inconclusive [inhibitor, single point]"}, {"smiles": "Cc1ccc(CNC(=O)C2(S(=O)(=O)c3ccc(C)cc3)CC2)cc1", "Potency": "inconclusive [inhibitor, partial curve]"}, {"smiles": "CCOC(=O)Cc1csc(NC(=O)CN(C)S(=O)(=O)c2ccc3c(c2)CCC(=O)N3)n1", "Potency": "inconclusive [inhibitor, single point]"}, {"smiles": "O=C(CCC(=O)N1CCN(c2cccc(Cl)c2)CC1)N1CCN(c2ccccc2)CC1", "Potency": "active: 18.4 µM"}, {"smiles": "COc1ccc(NC(=O)CC(c2ccc(F)cc2)c2ccc(OC)cc2)cc1", "note": "(centres undefined)", "Potency": "inconclusive [inhibitor, partial curve]"}, {"smiles": "COC(=O)C1=C(N)Oc2cc(C)[nH]c(=O)c2C1c1cccnc1", "note": "(centres undefined)", "activity change, negative = growth inhibition": "inactive: -4.95%"}, {"smiles": "OC(c1cccs1)c1nccc2ccccc12", "note": "(centres undefined)", "activity change, negative = growth inhibition": "inactive: -24.7%"}, {"smiles": "O=C(CSc1ccc(S(=O)(=O)N2CCCCC2)cn1)Nc1ccccc1Br", "Potency": "inconclusive [inhibitor, single point]"}, {"smiles": "COc1cc(/C=N/NC(=O)c2sc3ccccc3c2Cl)ccc1OC(=O)c1ccc([N+](=O)[O-])cc1", "Potency": "inconclusive [inhibitor, single point]"}, {"smiles": "CSc1ccc(CN(C)C(=O)c2ccc(S(=O)(=O)Nc3ccccc3)cc2)cc1", "Potency": "active: 18.4 µM"}, {"smiles": "CCOc1ccc(C(=O)NCC(c2ccco2)S(=O)(=O)c2ccc(C)cc2)cc1", "note": "(centres undefined)", "Potency": "inconclusive [inhibitor, partial curve]"}, {"smiles": "CCOc1ccc(S(=O)(=O)N2CCCC(C(=O)N3CCCC3)C2)cc1", "note": "(centres undefined)", "activity change, negative = growth inhibition": "inactive: -4.04%"}, {"smiles": "O=[N+]([O-])c1ccccc1S(=O)(=O)N1CCN(Cc2ccc3c(c2)OCO3)CC1", "activity change, negative = growth inhibition": "inactive: 0.687%"}, {"smiles": "COc1ccc(Cl)cc1NC(=O)N1CCC(CN2CCc3ccccc3C2)CC1", "Potency": "inconclusive [inhibitor, single point]"}, {"smiles": "Cc1cccc(-c2noc(CCCC(=O)NC3CCCCC3)n2)c1", "Potency": "inconclusive [inhibitor, single point]"}, {"smiles": "O=C(NNC(=O)c1ccccc1O)c1ccc(S(=O)(=O)Nc2ccccc2)cc1", "Potency": "inconclusive [inhibitor, single point]"}, {"smiles": "O=C(Cn1cnc2c(oc3ccccc32)c1=O)NCc1ccco1", "activity change, negative = growth inhibition": "inactive: 6.26%"}, {"smiles": "Oc1c(Br)cc(Br)cc1/C=N/Nc1ccc(Cl)nn1", "Potency": "inconclusive [inhibitor, full curve, poor fit]"}, {"smiles": "COc1cccc(CNC(=O)CSc2ccc(-c3sc(-c4ccccc4)nc3C)nn2)c1", "Potency": "inconclusive [inhibitor, single point]"}, {"smiles": "O=C(Nc1ccc(C(=O)O)cc1)Nc1ccc(F)cc1F", "activity change, negative = growth inhibition": "inactive: 15.6%"}, {"smiles": "CCOC(=O)/C(=N/Nc1ccccc1OC)N1CCCc2ccccc21", "Potency": "inconclusive [inhibitor, partial curve, poor fit]"}, {"smiles": "O=C(NCc1ccccc1)C(c1ccc(F)cc1)N(Cc1ccco1)C(=O)c1ccccn1", "note": "(centres undefined)", "Potency": "inconclusive [inhibitor, single point]"}, {"smiles": "CCOC(=O)N1CCN(C(C(=O)NC2CCCC2)c2ccco2)CC1", "note": "(centres undefined)", "Potency": "inconclusive [inhibitor, full curve, poor fit]"}, {"smiles": "Cc1ccc(NC(=O)c2ccc(NC(=O)N3CCSc4ncccc43)cc2)cc1Cl", "Potency": "active: 16.4 µM"}, {"smiles": "O=C(c1cccs1)N1C[C@H](O)[C@@H](n2cc(C3CC3)nn2)C[C@@H]1c1ccccc1", "activity change, negative = growth inhibition": "inactive: -20.4%"}, {"smiles": "CC(=O)c1ccc(N2CCN(C(=O)CCS(=O)(=O)c3ccc4c(c3)CCN4C(C)=O)CC2)cc1", "Potency": "active: 20.6 µM"}, {"smiles": "CCCCc1c(-c2ccc(Cl)cc2)ncn1CCc1ccccc1OC", "Potency": "active: 4.61 µM"}, {"smiles": "Cc1cccnc1CCNC(=O)CC1C(=O)NCCN1CC1CCCCC1", "note": "(centres undefined)", "activity change, negative = growth inhibition": "inactive: -15.6%"}, {"smiles": "CCCCn1c(N)c(N(CC)C(=O)C2COc3ccccc3O2)c(=O)[nH]c1=O", "note": "(centres undefined)", "activity change, negative = growth inhibition": "inactive: -13.5%"}, {"smiles": "C=CCn1c(SCC(=O)c2cc(C)n(Cc3cccs3)c2C)nnc1-c1ccncc1", "Potency": "inconclusive [inhibitor, partial curve, poor fit]"}, {"smiles": "COc1ccc(NS(=O)(=O)c2cc3[nH]c(=O)c(=O)[nH]c3cc2C)cc1OC", "activity change, negative = growth inhibition": "inactive: 2.45%"}, {"smiles": "Cc1cc(OCC(=O)N(C)Cc2ccccc2)ccc1Br", "Potency": "inconclusive [inhibitor, single point]"}, {"smiles": "Cc1cc(C(=O)OC(C(=O)Nc2ccc(C)c(Cl)c2)c2ccccc2)c(C)o1", "note": "(centres undefined)", "Potency": "active: 23.1 µM"}, {"smiles": "CC(C)CCNC(=O)C12CN(Cc3ccccc3)CC1C(c1ccc([N+](=O)[O-])cc1)=NO2", "note": "(centres undefined)", "Potency": "inconclusive [inhibitor, single point]"}, {"smiles": "O=C(Nc1ccc2c(c1)OCCO2)C(c1ccnc2ccccc12)N1CCC(Cc2ccccc2)CC1", "note": "(centres undefined)", "Potency": "inconclusive [inhibitor, single point]"}, {"smiles": "O=C1Nc2ccccc2-n2nnnc2C1N1CCN(c2ccc(F)cc2)CC1", "note": "(centres undefined)", "activity change, negative = growth inhibition": "inactive: -8.36%"}, {"smiles": "O=C1CC(SCc2nc3ccccc3[nH]2)C(=O)N1c1ccc(F)c(Cl)c1", "note": "(centres undefined)", "Potency": "inconclusive [inhibitor, single point]"}, {"smiles": "Cc1ccnc(Nc2nc(-c3ccccc3)cs2)c1", "Potency": "inconclusive [inhibitor, single point]"}, {"smiles": "Cc1ccc(S(=O)(=O)N(C)c2ccc(OC(=O)c3ccc(=O)[nH]c3)cc2)cc1", "Potency": "inconclusive [inhibitor, partial curve]"}, {"smiles": "CCOC(=O)N1CCN(C(=O)C2CCCN(c3ncnc4c3nc3n4CCCCC3)C2)CC1", "note": "(centres undefined)", "Potency": "inconclusive [inhibitor, single point]"}, {"smiles": "COc1ccc(C)cc1-n1c(SCC(=O)NC2CC2)nc2ccccc2c1=O", "Potency": "active: 18.4 µM"}, {"smiles": "Cn1c(N)c(C(=O)COC(=O)/C=C/c2ccc(F)cc2)c(=O)n(C)c1=O", "Potency": "inconclusive [inhibitor, single point]"}, {"smiles": "COc1ccc(C2Nc3ccccc3C(=O)N2Cc2ccccc2)cc1COc1ccccc1F", "note": "(centres undefined)", "Potency": "inconclusive [inhibitor, single point]"}, {"smiles": "ON=C1c2ccccc2-c2ccc(F)cc21", "Potency": "inconclusive [inhibitor, single point]"}, {"smiles": "Cc1ccc(S(=O)(=O)N(C)C)cc1NC(=S)N1CCN(Cc2ccc3c(c2)OCO3)CC1", "Potency": "active: 14.6 µM"}, {"smiles": "O=C(COc1ccc(F)cc1Cl)Nc1ccccc1C(=O)N1CCCCC1", "Potency": "inconclusive [inhibitor, single point]"}, {"smiles": "CCCCOC(=O)c1ccc(NS(=O)(=O)c2c(C)nc3scc(C)n3c2=O)cc1", "Potency": "active: 13 µM"}, {"smiles": "O=C(COc1ccc(Cl)cc1Cl)Nc1ccc(S(=O)(=O)NC2=NCCCCC2)cc1", "activity change, negative = growth inhibition": "inconclusive: -30.7% [inhibitor]"}, {"smiles": "COc1cc(-c2cc3nc(NCCc4ccc(S(N)(=O)=O)cc4)ccn3n2)cc(OC)c1OC", "Potency": "active: 23.1 µM"}, {"smiles": "Cc1ccc(CNC(=O)Cn2ncc3c(C)n(Cc4ccc(Cl)cc4)c(C)c3c2=O)cc1", "Potency": "inconclusive [inhibitor, single point]"}, {"smiles": "CCCCCCN1CCN(C2CN(Cc3cn(CCCCCC)nn3)S(=O)(=O)C2)CC1", "note": "(centres undefined)", "Potency": "inconclusive [inhibitor, single point]"}, {"smiles": "CCOC(=O)c1cn(CC)c2c(ccc3ccccc32)c1=O", "Potency": "inconclusive [inhibitor, single point]"}, {"smiles": "CCCCN(C=O)c1c(CC)nc2c(OCC(=O)c3ccc(F)cc3)cccn12", "Potency": "inconclusive [inhibitor, single point]"}, {"smiles": "CC(C)c1ccc(NC(=O)CSc2ncc3c(n2)-c2ccccc2N(C)S3(=O)=O)cc1", "Potency": "inconclusive [inhibitor, single point]"}, {"smiles": "Cc1ccc(N2C(=O)C3C4C=CC(CNC(=S)Nc5ccc(Cl)cc5)(O4)C3C2=O)cc1", "note": "(centres undefined)", "Potency": "inconclusive [inhibitor, single point]"}, {"smiles": "CCOC(=O)C1(Cc2cccc(OC)c2)CCN(Cc2ccccc2)CC1", "Potency": "inconclusive [inhibitor, single point]"}, {"smiles": "Cc1cccc(N2CCN(C(=O)Cn3cccc3)CC2)c1C", "Potency": "inconclusive [inhibitor, single point]"}, {"smiles": "CCCCCCN1CCN(C2CN(Cc3cn(Cc4ccc(Cl)cc4)nn3)S(=O)(=O)C2)CC1", "note": "(centres undefined)", "Potency": "active: 23.1 µM"}, {"smiles": "CCOC(=O)c1sc(NC(=O)CSc2n[nH]c(CC(C)C)n2)nc1C", "activity change, negative = growth inhibition": "inconclusive: -34.9% [inhibitor]"}]}]}
